# Measurements published in the supplement of paper PMC8728848.
# This is one part of the list.
# B1: mCC1-Hexahis-Precomplexed (Mus musculus), P31809 (protein)
# chain: MELASAHLHKGQVPWGGLLLTASLLASWSPATTAEVTIEAVPPQVAEDNNVLLLVHNLPLALGAFAWYKGNTTAIDKEIARFVPNSNMNFTGQAYSGREIIYSNGSLLFQMITMKDMGVYTLDMTDENYRRTQATVRFHVHPILLKPNITSNNSNPVEGDDSVSLTCDSYTDPDNINYLWSRNGESLSEGDRLKLSEGNRTLTLLNVTRNDTGPYVCETRNPVSVNRSDPFSLNIIYGPDTPIISPSDIYLHPGSNLNLSCHAASNPPAQYFWLINEKPHASSQELFIPNITTNNSGTYTCFVNNSVTGLSRTTVKNITVLEPVTQPFLQVTNTTVKELDSVTLTCLSNDIGANIQWLFNSQSLQLTERMTLSQNNSILRIDPIKREDAGEYQCEISNPVSVRRSNSIKLDIIFDPTQGGLSDGHHHHHH
# How the values were obtained:
# Assay in all cases: glycan array binding signal (z-score within array); higher = stronger binding
# Conditions in all cases: glycan notation: IUPAC condensed, linker removed
# [1] = target: Neu5Ac(a2-3)Gal(b1-4)GlcNAc(b1-6)GalNAc
# Method in brief: (§1)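 Glycan array binding is given as a within-array Z-score, which can be read as non-binding when negative. The arrays, 3228 of them, came from the Consortium for Functional Glycomics database and were retained only where the protein sequence was available. Z-scores were averaged across arrays of the same protein sequence at different concentrations or buffers and across linkers.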
# [2] = target: Neu5Ac(a2-3)Gal(b1-4)GlcNAc(b1-6)[Gal(b1-3)]GalNAc
# Method in brief: as §1
# [3] = target: Neu5Ac(a2-3)Gal(b1-4)GlcNAc(b1-6)[Neu5Ac(a2-3)Gal(b1-3)]GalNAc
# Method in brief: as §1
# [4] = target: Neu5Ac(a2-3)Gal(b1-4)GlcNAc6S
# Method in brief: as §1
# [5] = target: Neu5Ac(a2-3)Gal(b1-4)[Fuc(a1-3)]GlcNAc
# Method in brief: as §1
# [6] = target: Neu5Ac(a2-3)Gal(b1-4)[Fuc(a1-3)]GlcNAc(b1-2)Man
# Method in brief: as §1
# [7] = target: Neu5Ac(a2-3)Gal(b1-4)[Fuc(a1-3)]GlcNAc(b1-3)Gal
# Method in brief: as §1
# [8] = target: Neu5Ac(a2-3)Gal(b1-4)[Fuc(a1-3)]GlcNAc(b1-3)Gal(b1-4)GlcNAc
# Method in brief: as §1
# [9] = target: Neu5Ac(a2-3)Gal(b1-4)[Fuc(a1-3)]GlcNAc(b1-3)Gal(b1-4)[Fuc(a1-3)]GlcNAc(b1-3)Gal(b1-4)[Fuc(a1-3)]GlcNAc
# Method in brief: as §1
# [10] = target: Neu5Ac(a2-3)Gal(b1-4)[Fuc(a1-3)]GlcNAc(b1-3)GalNAc
# Method in brief: as §1
# [11] = target: Neu5Ac(a2-3)Gal(b1-4)[Fuc(a1-3)]GlcNAc(b1-6)[Gal(b1-3)]GalNAc
# Method in brief: as §1
# [12] = target: Neu5Ac(a2-3)Gal(b1-4)[Fuc(a1-3)]GlcNAc(b1-6)[Neu5Ac(a2-3)Gal(b1-3)]GalNAc
# Method in brief: as §1
# [13] = target: Neu5Ac(a2-3)Gal(b1-4)[Fuc(a1-3)]GlcNAc6S
# Method in brief: as §1
# [14] = target: Neu5Ac(a2-3)Gal6S(b1-4)GlcNAc
# Method in brief: as §1
# [15] = target: Neu5Ac(a2-3)Gal6S(b1-4)[Fuc(a1-3)]GlcNAc
# Method in brief: as §1
# Neu5Ac(a2-3)GalNAc = target: Neu5Ac(a2-3)GalNAc
# Method in brief: as §1
# [16] = target: Neu5Ac(a2-3)GalNAc(b1-4)GlcNAc
# Method in brief: as §1
# [17] = target: Neu5Ac(a2-3)[GalNAc(b1-4)]Gal(b1-4)Glc
# Method in brief: as §1
# [18] = target: Neu5Ac(a2-3)[GalNAc(b1-4)]Gal(b1-4)GlcNAc
# Method in brief: as §1
# [19] = target: Neu5Ac(a2-3)[GalNAc(b1-4)]Gal(b1-4)GlcNAc(b1-3)GalNAc
# Method in brief: as §1
# [20] = target: Neu5Ac(a2-3)[Neu5Ac(a2-6)]GalNAc
# Method in brief: as §1
# Neu5Ac(a2-6)Gal = target: Neu5Ac(a2-6)Gal
# Method in brief: as §1
# [21] = target: Neu5Ac(a2-6)Gal(b1-3)GlcNAc(b1-3)[Gal(b1-4)GlcNAc(b1-6)]Gal(b1-4)Glc
# Method in brief: as §1
# Neu5Ac(a2-6)Gal(b1-4)Glc = target: Neu5Ac(a2-6)Gal(b1-4)Glc
# Method in brief: as §1
# [22] = target: Neu5Ac(a2-6)Gal(b1-4)GlcNAc
# Method in brief: as §1
# [23] = target: Neu5Ac(a2-6)Gal(b1-4)GlcNAc(b1-2)Man
# Method in brief: as §1
# [24] = target: Neu5Ac(a2-6)Gal(b1-4)GlcNAc(b1-2)Man(a1-3)Man(b1-4)GlcNAc(b1-4)GlcNAc
# Method in brief: as §1
# [25] = target: Neu5Ac(a2-6)Gal(b1-4)GlcNAc(b1-2)Man(a1-3)[Gal(b1-4)GlcNAc(b1-2)Man(a1-6)]Man(b1-4)GlcNAc(b1-4)GlcNAc
# Method in brief: as §1
# [26] = target: Neu5Ac(a2-6)Gal(b1-4)GlcNAc(b1-2)Man(a1-3)[GlcNAc(b1-2)Man(a1-6)]Man(b1-4)GlcNAc(b1-4)GlcNAc
# Method in brief: as §1
# [27] = target: Neu5Ac(a2-6)Gal(b1-4)GlcNAc(b1-2)Man(a1-3)[GlcNAc(b1-4)][Neu5Ac(a2-6)Gal(b1-4)GlcNAc(b1-2)Man(a1-6)]Man(b1-4)GlcNAc(b1-4)GlcNAc
# Method in brief: as §1
binder,measurement,setting,value
B1,glycan array binding signal (z-score),[1],-0.237
same,glycan array binding signal (z-score),[2],-0.066
same,glycan array binding signal (z-score),[3],-0.183
same,glycan array binding signal (z-score),[4],-0.222
same,glycan array binding signal (z-score),[5],-0.172
same,glycan array binding signal (z-score),[6],-0.22
same,glycan array binding signal (z-score),[7],-0.197
same,glycan array binding signal (z-score),[8],-0.1
same,glycan array binding signal (z-score),[9],0.487
same,glycan array binding signal (z-score),[10],-0.087
same,glycan array binding signal (z-score),[11],0.076
same,glycan array binding signal (z-score),[12],-0.12
same,glycan array binding signal (z-score),[13],-0.277
same,glycan array binding signal (z-score),[14],-0.169
same,glycan array binding signal (z-score),[15],-0.282
same,glycan array binding signal (z-score),Neu5Ac(a2-3)GalNAc,-0.288
same,glycan array binding signal (z-score),[16],-0.292
same,glycan array binding signal (z-score),[17],-0.135
same,glycan array binding signal (z-score),[18],-0.089
same,glycan array binding signal (z-score),[19],3.55
same,glycan array binding signal (z-score),[20],-0.3
same,glycan array binding signal (z-score),Neu5Ac(a2-6)Gal,-0.145
same,glycan array binding signal (z-score),[21],-0.191
same,glycan array binding signal (z-score),Neu5Ac(a2-6)Gal(b1-4)Glc,-0.195
same,glycan array binding signal (z-score),[22],-0.133
same,glycan array binding signal (z-score),[23],-0.158
same,glycan array binding signal (z-score),[24],-0.116
same,glycan array binding signal (z-score),[25],-0.215
same,glycan array binding signal (z-score),[26],-0.18
same,glycan array binding signal (z-score),[27],-0.101
